# Whole data set: some 33,000 sequences, median “E-score (-0.5 to 0.5)” near -0.056, cut for the highest 2% near 0.38. This is one part of the list.
# Target: Stb4 (UniProt P50104)
# Assay: PBM E-score (8-mer binding enrichment) (E-score (-0.5 to 0.5)); higher = stronger / more preferred TF binding; most listed sequences are background and not binding sites
# Details: protein concentration: 200 nM; construct: GST-DNA-binding domain
# In short: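 Each ungapped eight-base word and its reverse complement, pooled, received an E-score from the Universal PBM Analysis Suite. Underlying scans, normalised with masliner, recorded fluorescent anti-GST bound to GST-tagged yeast transcription factors. These were applied at about 100-200 nM to universal all-10-mer Agilent arrays double-stranded by primer extension.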
row,Sequence,PBM E-score
1,TAACTAAA,-0.158
2,GACGGGCC,0.126
3,CGCTGCCG,0.226
4,AGCGTTTA,-0.17
5,TGCCTAAA,-0.168
6,CAACGCTG,-0.204
7,ACTAGGTG,-0.17
8,AGCGCCCA,-0.301
9,GAAGTGAA,-0.0653
10,GTCCGCTA,-0.0111
11,GCGCCGCA,0.0423
12,ATTAGGTA,-0.25
13,GCATAGGA,-0.171
14,ATCTTACC,0.0649
15,ATCTCCCA,-0.0777
16,GCGCATAA,-0.139
17,CAGGCATA,-0.283
18,GATAGCAC,-0.0151
19,GACTGCTC,-0.0224
20,GAAGCCGC,0.193
21,CGGAACAG,0.427
22,TCCCACCA,-0.0168

row,Sequence,PBM E-score
1,AAGTACGA,0.111
2,GGGACGGA,0.254
3,AGTGCTCC,0.0755
4,AACCGATT,0.317
5,CGAACCAC,0.167
6,GAGTAATC,-0.0725
7,AAAATGTT,-0.163
8,GTAAATCA,0.126
9,GCTGGACC,-0.00284
10,ATGTATCA,-0.151
11,AGAATCAG,-0.0131
12,CAATGGAC,-0.136
13,CTCGGGCC,0.343
14,ACTTAACT,-0.00924
15,CTGGGCTC,-0.147
16,GAGCGAAA,0.0769
17,CGAGTCCA,0.0087
18,CCCAGACC,-0.161
19,ATTTAGCG,-0.0337
20,ACCACAAC,0.0425
21,GACTGCTA,-0.253
22,CCGCCCAG,0.114

row,Sequence,PBM E-score
1,ACTGCATA,-0.135
2,CACACTAA,-0.194
3,GTGAGCGA,-0.053
4,AGGCTGAA,-0.207
5,AAGGGTGA,-0.111
6,CCGTCTCC,0.0898
7,CAGGAGCG,-0.122
8,GACCGTGC,-0.0904
9,ACTCGTAT,-0.0951
10,AGAGACCC,-0.0488
11,AGCACCGG,0.193
12,GGTGTAGA,-0.0413
13,GCCTGGCA,-0.191
14,AATAAAAT,-0.26
15,ATCTCCAC,-0.0508
16,AAGCGTTC,-0.0336
17,GATTCCCA,-0.109
18,AGACATCT,-0.148
19,AGCATCCT,0.0794
20,ACAACCAA,-0.198
21,GAGCATAC,-0.0688
22,AAAGCTTA,-0.261

row,Sequence,PBM E-score
1,AGTCCCAC,-0.093
2,CGAATTCC,0.267
3,ATGCAATA,-0.244
4,TCACTTCA,-0.184
5,GCAACAAC,-0.137
6,CGAAATAA,0.276
7,CTGGTAAG,-0.136
8,ACATATTA,-0.0926
9,AGGTTTGA,-0.1
10,AAGAGGAA,-0.184
11,ATGTGTGG,-0.018
12,GATGCGCA,-0.047
13,GGCGGTAC,0.0184
14,TCAGCGCA,-0.0691
15,TCTCTCAA,-0.0933
16,AGACAACA,-0.121
17,ACAAATAT,0.112
18,GGAGCGTA,0.0909
19,ATTAGTCC,0.124
20,AAGACACC,0.077

# From the supplement of paper PMC3334620
